PubChem BioAssay AID743279 (National Center for Advancing Translational Sciences (NCATS), 2014)
Where “and” joins values, the source holds several entries; their conditions need not be identical. Identical values can stand only once. The campaign covered roughly 360,000 compounds. About 17,000 (4.7%) were called active. Inconclusive means that the source gave no clear call. Such entries were picked first, then a sample of the others. No stated cut-off is given here; in the data, active means activity change below about -50%; inconclusive means mostly about -30% to -49%; inactive means weaker than that.

Assay: qHTS for Inhibitors of Inflammasome Signaling: IL-1-beta AlphaLISA Primary Screen
Settings: THP-1 LPS/ATP IL-1B secretion, 16 h; at 57.5 µM, stronger effect = lower value
Method in brief: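 THP-1 cells pretreated 1 hr with compounds (up to 57.5 uM final), then stimulated with LPS (250 ng/mL final) plus ATP (1.25 mM final); secreted IL-1B measured by AlphaLISA after 16 hr, decreased signal indicating inhibition.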
On the % scale 0 is the no-effect control and ±100 the full control effect.

| Compound | activity change |
| --- | --- |
| Nn1c(-c2ccccc2Cl)nnc1-c1ccccc1Cl | inconclusive: -32.4% |
| CCN(CC)CCOC(c1ccccc1)c1ccc(C)cc1 (configuration not stated) | inconclusive: -41.6% |
| Cc1nn(C)c(C)c1Nc1ccc(N2C(=O)C3CC=CCC3C2=O)cc1[N+](=O)[O-] (configuration not stated) | inactive: 46.7% |
| Nc1c(C(=O)OCC(=O)Nc2ccc(Cl)cc2[N+](=O)[O-])[nH]c(=O)[nH]c1=O | inactive: -2.55% |
| S=C(NCc1cccs1)Nc1cccc(Cl)c1Cl | inconclusive: -41.3% |
| CCc1c(C(=O)N/N=C/c2sccc2C)nnn1-c1nonc1N | inactive: -9.16% |
| CC1CCCN(CC(O)COC(c2ccccc2)c2ccccc2)C1 (configuration not stated) | inconclusive: -33.3% |
| COc1cc(CNCc2ccccn2)ccc1OCc1ccccc1Cl | inactive: -18.1% |
| COc1ccc(S(=O)(=O)N2CCN(CC(=O)Nc3ccc(C)c(F)c3)CC2)cc1 | active: -61.2% |
| CCn1c2ccccc2c2cc(NC(=O)COC(=O)c3ccc(O)cc3)ccc21 | inconclusive: -31.1% |
| COc1cccc(-c2cc(NC(C)=O)c3ncc(-c4ccc(OC)c(OC)c4)n3c2)c1 | active: -80.8% |
| O=C(c1ccc(COc2ccccc2Cl)o1)N1N=C(C(F)F)CC1(O)C(F)F (configuration not stated) | inconclusive: -30.4% |
| CC(C)(C)c1ccc(-c2nnc(SCCC#N)n2C2CCCC2)cc1 | active: -51.2% |
| CCOc1ccc(OCC)c(NC(=O)C2CCN(c3cnccn3)CC2)c1 | inconclusive: -36.4% |
| Cc1cccc(Nc2nc(N)c([N+](=O)[O-])c(N3CC(C)OC(C)C3)n2)c1 (configuration not stated) | inconclusive: -36.2% |
| COc1ccccc1-c1cc(C(=O)N/N=C/c2ccc(C)o2)c2ccccc2n1 | inactive: 43.8% |
| Cc1cc(Br)ccc1Nc1nc(N)nc(N)c1N=O | inconclusive: -38.4% |
| CCOc1ccccc1N1CCN(C(=O)c2cc3c(C)cc(C)cc3[nH]2)CC1 | inconclusive: -38.1% |
| COc1cc(C2CC(=O)Oc3cc(C)cc(C)c32)cc(OC)c1OC (configuration not stated) | inactive: 38.9% |
| COc1cc(C2C(C#N)=C(N)Oc3cc(O)ccc32)cc(OC)c1OC (configuration not stated) | inactive: 20% |
| CCC(C)(C)c1ccc(OCC(=O)Nc2ccncc2)cc1 | inactive: -12.1% |
| CC(C)(C)NCC(O)COc1ccccc1C(=O)CCc1ccccc1 (configuration not stated) | active: -76.9% |

| Compound | activity change |
| --- | --- |
| COc1ccc(N(CC(=O)NCCSCc2ccco2)S(=O)(=O)c2ccccc2)cc1 | inconclusive: -32.6% |
| CCCCn1c(N)c(N(C(=O)CSc2nncn2-c2ccccc2)C2CCCC2)c(=O)[nH]c1=O | inconclusive: -34.6% |
| CN(C)S(=O)(=O)c1cccc(NC(=S)Nc2ccc3cn[nH]c3c2)c1 | inconclusive: -39% |
| COc1ccc(/C=N/Nc2cc(C)nc3ccc(Br)cc23)cc1 | active: -101% |
| COc1ccc(CNCC(O)(c2ccc(F)cc2)c2ccc(F)cc2)cc1OC | inconclusive: -37.1% |
| COc1ccc([N+](=O)[O-])cc1NC(=O)C(C)NNC(=O)c1cccc([N+](=O)[O-])c1 (configuration not stated) | inactive: 6.63% |
| COc1ccc(C/C(=N\O)c2ccc(OC)cc2)cc1 | inconclusive: -32.7% |
| COc1ccc(/C=N/n2cnn(Cc3ccccc3Cl)c2=S)cc1OC | active: -54.6% |
| Oc1cccc(NC(=S)N=Nc2c(O)[nH]c3ccc(Br)cc23)c1 | inactive: -5.46% |
| CCCCN(C(=O)c1cc2c(s1)CCC2)c1c(N)n(CCCC)c(=O)[nH]c1=O | inactive: -4.43% |
| Cc1cc(C2=NNC(=Nc3ccccc3)SC2)c(C)n1C | inactive: -20.2% |
| CCC1CCCCN1CCCNC(=O)Cn1cc2c(n1)-c1c(oc(C(=O)N3CCCC3)c1C)CC2 (configuration not stated) | inconclusive: -38% |
| COc1ccc(-c2cn(/N=C/c3ccc(Cl)cc3Cl)c(N)n2)cc1 | active: -66.4% |
| CCN1CCN(c2cc(C)c3cc(NC(=O)CCC(=O)N4CCN(c5ccccc5OC)CC4)ccc3n2)CC1 | inconclusive: -41.7% |
| COc1ccc(-c2ccc(OC)cc2)cc1 | inactive: -10.6% |
| CCOc1cccc(CN(C)CC2CCCN(CCc3ccc(Cl)cc3)C2)c1O (configuration not stated) | inconclusive: -32.8% |
| CC1CCN(C2=C(NS(=O)(=O)c3ccccc3)C(=O)c3ccccc3C2=O)CC1 | active: -73.6% |
| CCOC(=O)c1c(C)[nH]c(C(=O)OCc2ccc([N+](=O)[O-])cc2)c1C | inconclusive: -39% |
| COc1ccc(Br)cc1CNc1ccccc1 | inconclusive: -37.5% |
| Cc1ccc(Cn2c(=S)[nH]c3ccc(N4CCOCC4)cc3c2=O)o1 | inconclusive: -49% |
| CCC(CC)N1CCN(S(=O)(=O)c2ccc(OC)cc2)CC1 | inactive: -2% |
| Cc1ccc(C(=O)OCC(=O)Nc2nc(-c3ccccc3)cs2)cc1NC(=O)c1ccco1 | active: -80.4% |

| Compound | activity change |
| --- | --- |
| C[C@H](CO)N1C[C@H](C)[C@@H](CN(C)Cc2ccc(-c3ccccc3)cc2)Oc2c(NS(=O)(=O)c3ccc(F)cc3)cccc2C1=O | inconclusive: -43.1% |
| FC(F)C(F)(F)C(F)(F)C(F)(F)c1cc(-c2ccccc2)n[nH]1 | inconclusive: -38.4% |
| CCCCC(=NCCc1c(C)[nH]c2ccccc12)C1=C(O)CC(c2ccccc2)CC1=O (configuration not stated) | inconclusive: -33.8% |
| CCOc1ccc(N2CC(C(=O)NCc3nnnn3-c3ccc(C)c(C)c3)CC2=O)cc1 (configuration not stated) | inconclusive: -30.7% |
| CCOc1ccc(NS(=O)(=O)c2ccc3[nH]cc(C(=O)NCC4CCCO4)c(=O)c3c2)cc1 (configuration not stated) | inactive: 33.9% |
| C[C@@H]1CN([C@@H](C)CO)C(=O)c2cc(Br)cnc2O[C@@H]1CN(C)C(=O)CN(C)C | inactive: 5.65% |
| Cc1ccc(C(=O)c2ccc(N3CCOCC3)c(F)c2)cc1 | inconclusive: -40.9% |
| CCc1nc(CNC(=O)C2CCC(=O)N(Cc3cccc(OC)c3)C2)no1 (configuration not stated) | inactive: -7.78% |
| Cc1ccc(C2CC(c3ccc(Br)cc3)=NN2C(=O)CSC2=NN3CCCC(=O)N=C3S2)cc1 (configuration not stated) | inconclusive: -31.3% |
| Oc1ccc(/C=N\Nc2cc(N3CCOCC3)nc(N3CCOCC3)n2)c(O)c1 | inconclusive: -30.3% |
| CCC(=O)N(CCC(Cc1ccccc1)c1ccc2c(c1)OCO2)Cc1ccccc1F (configuration not stated) | inactive: -25.2% |
| COc1cccc(-c2ccc(SCc3ccccn3)nn2)c1 | active: -85.3% |
| Cc1ccc(Cl)c(OCCCCN(C)Cc2ccccc2)c1 | active: -56.9% |
| O=[N+]([O-])c1cc2c(cc1Br)-c1ccccc1C2 | inactive: 36.7% |
| CCN(CC)CCNCc1cc(Cl)ccc1OCc1ccccc1F | active: -90.3% |
| CC1CCCN(Cc2c(O)ccc3c2O/C(=C\c2ccco2)C3=O)C1 (configuration not stated) | inactive: -2.21% |
| COc1cccc2c(=O)c3cccc(N)c3[nH]c12 | inconclusive: -30.7% |
| CCC1Oc2ccccc2N(CC(=O)NCc2cccs2)C1=O (configuration not stated) | inactive: 0% |
| N#Cc1cccc(CS(=O)(=O)c2ccc(Cl)cc2)c1 | inconclusive: -36.4% |
| COc1ccc(-c2nc3c(C)cc(Br)cn3c2Cc2cccc(Cl)c2)cc1OC | inconclusive: -34.5% |
| O=C(Nc1ccc(Br)cc1)c1cccc(N2C(=O)C3C4CCC(C4)C3C2=O)c1 (configuration not stated) | inconclusive: -45.1% |
| COC(=O)C1(C(=O)OC)C[C@H](c2ccc(OC)cc2)N(Cc2ccccc2OC)[C@@H]1c1cccs1 | inconclusive: -37.5% and inconclusive: -31.9% |

| Compound | activity change |
| --- | --- |
| O=C1OC(Nc2nc(-c3ccc(F)cc3)cs2)c2ccccc21 (configuration not stated) | active: -92.1% |
| O=C(OCc1cncs1)c1cccs1 | inconclusive: -30.7% |
| c1coc(CN2CN=C(Nc3nc4ccccc4s3)NC2)c1 | inconclusive: -32.5% |
| CN(C)CCCNc1ncnc2sc(-c3ccccc3)cc12 | active: -76.5% |
| COc1cccc(C2CC(c3cccs3)=NN2C(=O)CSC2=NCCS2)c1OC (configuration not stated) | inconclusive: -30.8% |
| C#CCSc1nnc(CSc2nc3ccccc3s2)n1-c1ccccc1 | inconclusive: -31.4% |
| OC(CNCc1ccc(F)cc1)(c1ccccc1)c1ccc(F)cc1 (configuration not stated) | inconclusive: -41.4% |
| Cc1cc(C)c(C(O)c2ncc(-c3ccccc3Cl)[nH]2)c(C)c1 (configuration not stated) | inconclusive: -33.8% |
| Cc1cc(N2CCCC2=O)cc(C)c1S(=O)(=O)NCCOc1ccccc1 | inconclusive: -42.4% |
| c1cnc2ccc(C(c3nnnn3C3CCCC3)N3CCN(c4nc5ccccc5s4)CC3)cc2c1 (configuration not stated) | active: -53% |
| COc1ccc(C2=NOC(C(=O)Nc3ccc4c(c3)OCCO4)C2)cc1OC (configuration not stated) | inconclusive: -35.4% |
| Cc1cccc(CC(C)NC(=O)c2cc(COc3ccc(F)cc3F)on2)n1 (configuration not stated) | inconclusive: -31% |
| CCOC(=O)c1c(SCC(=O)Nc2nccs2)nc(C)c(C)c1C | inactive: -7.24% |
| O=C(CN1CCN(C(=O)CNC(=O)c2ccc(-c3ccccc3)cc2)CC1)Nc1ccccc1Cl | inconclusive: -38.1% |
| Cc1ccc(-c2noc(CN(C(=O)C(c3ccccc3)c3ccccc3)C(C)C)n2)cc1 | inconclusive: -44.1% |
| N=C(N)SCc1ccccc1Cl | active: -80.3% |
| O=C(N/N=C/c1cccs1)c1cc(-c2ccc3ccccc3c2)n[nH]1 | inconclusive: -45.7% |
| O=S(=O)(c1ccc(OCc2ccc(Br)cc2)cc1)N1CCOCC1 | inactive: -15.8% |
| CCCCN(C)C(=O)c1ccc(Nc2nc(C(N)COCc3ccccc3)cs2)nc1 (configuration not stated) | inconclusive: -37% |
| CCCN(CCC)C(=O)CC(c1ccccc1)C1CCOC(C)(C)C1 (configuration not stated) | inactive: 16.3% |
| COc1ccc(NS(=O)(=O)c2cc(NC(=O)c3cc(F)c(F)c(F)c3F)ccc2N2CCCC2)cc1 | inconclusive: -32.6% |
